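Where inhibition never reached the appropriate level, the endpoint shown equals the highest concentration tested. Otherwise, values were interpolated linearly from a five-concentration, 48-hour dose response in 96-well plates. Here, GI50 denotes the concentration required for 50% inhibition of growth. TGI: total growth inhibition.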
What follows are compounds tested on NCI-H322M lung (assay: DTP human tumour cell line panel, 48 h).

Structure (SMILES) | GI50 | TGI
COc1ccc(Cn2cc3c(c2-c2cc(OC)c(OC)c(OC)c2)CCCc2cnoc2-3)cc1N | 1840 nM | > 100000 nM
NC(N)=Nc1ccc(Oc2cccc(Nc3ccc(Cl)c(C(F)(F)F)c3)c2)cc1 | 1750 nM | 3380 nM
CCN(CC)S(=O)(=O)c1ccc(-c2nc(C(Cl)Cl)nc3cc(C)nn23)cc1 | 2050 nM | 6330 nM
O=C1CCC(N2C(=O)c3ccc(NS(=O)(=O)c4ccccc4OC(F)(F)F)cc3C2=O)C(=O)N1 (stereo not drawn) | 724 nM | > 100000 nM
